Measurements from PubChem BioAssay AID1460 (National Center for Advancing Translational Sciences (NCATS), 2008).
In all, about 270,000 compounds went through this assay and about 5,800 (2.1%) were called active. The inconclusive results got no clear call from the source; some entries with a clear call stand among them for comparison. The call rests on the fitted dose curve; in most records, active means well fitted inhibition curve with a large enough effect; inconclusive means small, poorly fitted or top-dose-only effect; inactive means flat fitted curve, though single readings scatter. Where the call is inconclusive, the potency comes from a doubtful curve fit.

molecular target: Microtubule-associated protein tau (Homo sapiens) (UniProt P10636); assay: qHTS for Inhibitors of Tau Fibril Formation, Thioflavin T Binding; conditions: recombinant tau K18 P301L (four-repeat tau fragment), heparin-induced fibrillization, ThT fluorescence; series mostly up to 57.4 µM; further: nearly all actives have a fitted effect of over 55% in size
UniProt P10636, sequence (P10636 whole entry, looked up, the tested form may be a part): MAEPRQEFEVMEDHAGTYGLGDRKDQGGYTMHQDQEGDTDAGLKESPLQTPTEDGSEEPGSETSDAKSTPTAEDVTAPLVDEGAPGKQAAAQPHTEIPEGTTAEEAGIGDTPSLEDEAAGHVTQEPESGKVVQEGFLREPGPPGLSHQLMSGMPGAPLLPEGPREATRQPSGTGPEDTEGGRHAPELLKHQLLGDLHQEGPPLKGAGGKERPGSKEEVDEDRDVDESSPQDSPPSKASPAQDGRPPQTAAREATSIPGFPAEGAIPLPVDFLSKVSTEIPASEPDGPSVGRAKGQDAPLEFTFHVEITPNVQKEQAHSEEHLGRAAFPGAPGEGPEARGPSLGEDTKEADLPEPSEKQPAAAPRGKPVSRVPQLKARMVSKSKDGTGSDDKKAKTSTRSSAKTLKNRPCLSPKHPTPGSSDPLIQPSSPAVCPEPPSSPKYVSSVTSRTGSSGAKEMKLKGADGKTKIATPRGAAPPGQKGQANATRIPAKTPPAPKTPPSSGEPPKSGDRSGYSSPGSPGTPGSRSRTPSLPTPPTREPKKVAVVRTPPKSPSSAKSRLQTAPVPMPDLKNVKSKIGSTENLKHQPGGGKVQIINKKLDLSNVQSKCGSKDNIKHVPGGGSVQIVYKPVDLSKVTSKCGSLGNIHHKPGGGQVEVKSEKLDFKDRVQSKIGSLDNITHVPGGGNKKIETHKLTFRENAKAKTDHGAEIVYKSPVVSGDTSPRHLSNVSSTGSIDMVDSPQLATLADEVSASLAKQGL
How it was run: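 Tau K18 P301L fragment (15 uM unlabeled plus 0.24 uM Alexa 594-labeled) in 100 mM sodium acetate pH 7 with compound, fibrillization induced by 20 uM heparin for 6 hr at 37 C. Thioflavin T (30 uM) added, fluorescence read after 1 hr (ex 450, em 510 nm).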
Potency means the concentration at half of the fitted maximal effect; tags describe the fitted curve by direction and shape.

SMILES | Potency
COc1cc(CNc2ccc3[nH]c(=O)[nH]c3c2)cc(Br)c1OCC(=O)NC(C)(C)C | inconclusive: 7.94 µM [inhibitor, partial curve]
CCOc1ccc(N=Nc2c(C)noc2C)cc1 | active: 15.8 µM
O=C(CN1C(=O)NC2(CCCCC2)C1=O)N1CCN(S(=O)(=O)c2ccccc2)CC1 | inactive
COc1ccc(-c2ncc3ccccn23)cc1OC | inconclusive: 22.4 µM [inhibitor, single point]
COc1ccc2c(c1)CC/C2=N\OC(=O)c1ccccc1C | inconclusive: 0.224 µM [inhibitor, full curve]
CCOC(=O)/C=C/C(=O)Nc1ccc(S(=O)(=O)N(C)c2ccccc2)cc1 | inconclusive: 15.8 µM [inhibitor, partial curve]
CCCN1Cc2cccc(C(=O)Nc3ccc4c(c3)OCO4)c2C1=O | inconclusive: 31.6 µM [inhibitor, single point]
NC(=O)c1cc(-c2ccncc2)nc2ccc(Cl)cc12 | inconclusive: 28.2 µM [inhibitor, single point]
CCOC(=O)c1c(NC(=O)c2nn(CC)cc2Br)sc2c1CCCCC2 | inconclusive: 15.8 µM [inhibitor, partial curve]
CCN(CC)c1ccc(NC(=O)Nc2cccc(C(C)=O)c2)cc1 | inconclusive: 17.8 µM [inhibitor, partial curve]
O=C(c1ccc(=O)oc1)N1CCCc2ccccc21 | inactive
CCn1c2ccccc2c2nnc(N3CCN(c4cccc(C)c4C)CC3)nc21 | inconclusive: 20 µM [inhibitor, single point]
c1nnc(NC2=NCCC2)s1 | inactive
Cc1cccc(N2CCN(C(=O)Cc3cn(C)c4ccccc34)CC2)c1C | inactive
Cc1nnc(N2C(=O)C(O)=C(C(=O)c3ccco3)C2c2ccc(F)cc2)s1 (stereo unspecified) | inconclusive: 14.1 µM [inhibitor, single point]
O=C(CN1CCCN(Cc2ccccc2Cl)S1(=O)=O)Nc1ccc2c(c1)OCCO2 | inactive
COc1ccc(-c2c(C)nn3c(C(F)(F)F)cc(-c4ccc(Br)cc4)nc23)cc1 | inconclusive: 31.6 µM [inhibitor, single point]
Cc1ccc2[nH]c(O)c(N=NC(=O)c3ccc(NS(=O)(=O)c4cccs4)cc3)c2c1 | inconclusive: 2.51 µM [inhibitor, full curve]
Cn1nnnc1SCC1=C(C(=O)O)N2C(=O)C(NC(=O)C(O)c3ccccc3)C2SC1 (stereo unspecified) | inconclusive: 17.8 µM [inhibitor, partial curve]
CCC/C=N/NC(=O)c1[nH]c2c([N+](=O)[O-])cccc2c1C | inconclusive: 17.8 µM [inhibitor, partial curve]
CCN(CC)c1ccc2cc(-c3nnc(-c4ccncc4)o3)c(=O)oc2c1 | inconclusive: 0.631 µM [activator, full curve]
Cc1ccc2c(c1)Sc1c(ccc3ccccc13)N2 | active: 3.16 µM
NC(=S)N/N=C/c1ccccc1OCc1cccc(Cl)c1 | inactive
Cc1cc(N=CC2=C(O)CC(C)(C)CC2=O)no1 | inactive

SMILES | Potency
COc1ccc(-c2oc(NC(=O)CSc3ncn[nH]3)c(C#N)c2-c2ccc(OC)cc2)cc1 | inconclusive: 20 µM [inhibitor, single point]
O=C(COc1ccccc1)Nc1ccc(C(=O)OCc2cc(=O)n3nc(C4CC4)sc3n2)cc1 | inactive
CCCCOc1ccc(-c2cc(C(=O)NNC(=S)NCC)c3ccccc3n2)cc1 | inconclusive: 22.4 µM [inhibitor, single point]
O=C(c1cc2c(=O)[nH]c3ccccc3c2s1)N1CCN(c2ccc(F)cc2)CC1 | inconclusive: 11.2 µM [inhibitor, partial curve]
CCOc1ccc(C(=O)Nc2ccc(-c3nc4cc(CC)ccc4o3)cc2)cc1 | inactive
Cc1c(C(=O)N2CCCCC2)sc(N)c1C#N | inactive
O=C(COc1ccccc1[N+](=O)[O-])NNC(=O)Nc1cccc2ccccc12 | inconclusive: 7.08 µM [inhibitor, partial curve]
Cc1ccccc1CN1CCc2nc(Nc3ccc4c(c3)OCCO4)ncc2C1 | inconclusive: 3.98 µM [inhibitor, partial curve]
CCOc1ccc(OCC)c(C2C(C#N)=C(N)N(c3cccnc3)C3=C2C(=O)CC(C)(C)C3)c1 (stereo unspecified) | inconclusive: 0.631 µM [inhibitor, partial curve]
O=C(CSc1nc(O)c(Cc2ccccc2F)c(=O)[nH]1)N1CCCCCC1 | inconclusive: 28.2 µM [inhibitor, partial curve]
CCOC(=O)c1c(-c2ccccc2)csc1/N=C/C1C(=O)CCCC1=O | inconclusive: 22.4 µM [inhibitor, single point]
COc1ccc(C2=C(Nc3ccc(F)cc3)c3ccccc3C2=O)cc1 | inconclusive: 15.8 µM [inhibitor, partial curve]
O=C1CCCC2=C1C(c1ccco1)Nc1ccc(C(=O)c3ccccc3)cc1N2 (stereo unspecified) | inconclusive: 12.6 µM [inhibitor, single point]
CS(=O)(=O)N1CCN(c2ccc(NC(=S)NC(=O)c3cccs3)cc2)CC1 | inconclusive: 1 µM [inhibitor, full curve]
CCOc1ccc(-c2ccc(NS(=O)(=O)c3cc(C)c(C)cc3C)cc2)nn1 | inactive
COc1ccc(-c2nc3nc(C)cc(Nc4ccc(C(C)=O)cc4)n3n2)cc1 | inactive
COC(=O)c1ccc(NC(=O)Cc2coc3cc(C)ccc23)cc1 | inactive
C=CCn1c(O)c(N=NC(=O)CNC(=O)/C=C/c2ccc(OC)cc2)c2ccccc21 | active: 12.6 µM
Cc1ccc(C(=O)NCCc2ccc(F)cc2)s1 | inactive
COC(=O)C1=C(C(=O)OC)C2(OC1c1cccc(F)c1)C(=O)c1ccccc1C2=O (stereo unspecified) | inactive
CCc1c(C(C)S(=O)(=O)c2ccc(C)cc2)[nH]c(=O)n1-c1ccc(C)cc1 (stereo unspecified) | inconclusive: 44.7 µM [inhibitor, single point]
CC1CCN(c2ccc(NC(=S)NC(=O)c3ccco3)cc2)CC1 | inconclusive: 3.98 µM [inhibitor, partial curve]
CC(C)c1nc(SCC(=O)c2c[nH]c3ccccc23)n[nH]1 | inconclusive: 44.7 µM [inhibitor, single point]
CCCOc1ccc(Nc2nc(SC)ncc2C(=O)OCC)cc1 | inconclusive: 15.8 µM [inhibitor, partial curve]

SMILES | Potency
COc1cccc2c1Oc1nc(-c3ccccc3)nc(SCC(=O)N3CCCCC3)c1C2 | inconclusive: 25.1 µM [inhibitor, single point]
Cc1ccc(-n2c(CNc3ccc(C)c(Cl)c3)n[nH]c2=S)cc1 | inconclusive: 22.4 µM [inhibitor, partial curve]
O=C(Nc1c(-c2ccccc2)nc2ccccn12)c1ccc(Br)cc1 | inconclusive: 25.1 µM [inhibitor, single point]
C=CCSC1=Nc2cc(OC)c(OC)cc2C2=NC(=O)CN12 | inactive
COc1ccc(/C=C(/Sc2nnc(-c3ccc(Cl)cc3)o2)C(=O)O)cc1 | inconclusive: 3.55 µM [inhibitor, full curve]
COc1ccc(/C=N/Nc2ncc(C(F)(F)F)cc2Cl)c(OC)c1OC | inactive
O=C(NCc1cccs1)C1CCN(C(=O)N2CCOc3ccccc32)CC1 | inactive
COc1cc(SC#N)ccc1N=Cc1c(C)[nH]n(-c2ccc(C)cc2)c1=O | active: 14.1 µM
Cc1ccc(N2CCN(C(=O)c3ccc4c(Cl)c5c(nc4c3)CCCC5)CC2)c(C)c1 | inconclusive: 14.1 µM [inhibitor, partial curve]
CCCCn1cnc2c(oc3nc4c(cc32)CCCC4)c1=O | inconclusive: 7.08 µM [inhibitor, full curve]
O=C(Nc1nnc(COc2ccc(Cl)cc2)s1)c1cccs1 | inactive
Cc1ccc(C)c(S(=O)(=O)NCC(c2ccco2)S(=O)(=O)c2ccc(F)cc2)c1 (stereo unspecified) | inactive
NCCCNCCCCNCCCN | inconclusive: 7.08 µM [inhibitor, single point]
C=CCSC1=N/C(=C\c2ccc(C(=O)O)cc2)C(=O)S1 | inconclusive: 17.8 µM [inhibitor, partial curve]
NS(=O)(=O)c1ccc(N/N=C2/CCCCC2C2CCCCC2)c([N+](=O)[O-])c1 (stereo unspecified) | inconclusive: 28.2 µM [inhibitor, partial curve]
O=C(N/N=C/c1ccc(-c2ccccc2C(=O)O)o1)c1cccs1 | inconclusive: 35.5 µM [inhibitor, single point]
COc1ccccc1-c1ccnc2[nH]n(-c3ccccc3)c(=O)c12 | inconclusive: 11.2 µM [inhibitor, partial curve]
CCc1ccc(NC(=O)c2noc3c2CCc2ccccc2-3)cc1 | inconclusive: 1.58 µM [inhibitor, partial curve]
CCOc1ccc(C2C(=O)N(C3CCCCCC3)CC(=O)N2CCc2ccccc2)cc1OC (stereo unspecified) | inactive
COc1ccc(S(=O)(=O)N/N=c2\oc3c(OC)cccc3cc2S(=O)(=O)c2ccc(C)cc2)cc1OC | inactive
C/C(=N\NC(=O)c1ccc(-c2ccccc2)cc1)c1cccc(N)c1 | inconclusive: 3.55 µM [inhibitor, partial curve]
COc1ccc(N2CCN(S(=O)(=O)CCNC(=O)c3ccc(C(F)(F)F)cc3)CC2)cc1 | inactive
CN(C=C1C(=O)CC(C)(C)CC1=O)CCN1CCNCC1 | inconclusive: 28.2 µM [inhibitor, partial curve]
